Source: ChEMBL document CHEMBL4888484, “Replenishing the malaria drug discovery pipeline: Screening and hit evaluation of the MMV Hit Generation Library 1 (HGL1) against asexual blood stage Plasmodium falciparum ,using a nano luciferase reporter read-out” (2022)
The campaign covered roughly 150,000 compounds. About 540 (0.36%) showed an effect of 50% or more. This is one part of the list.

The compounds below were run on Plasmodium falciparum (assay: Primary screen in NF54 nanoGlo assay, in single point, at 2uM, 72h; a lower Z score goes with more inhibition). Conditions: timepoint 72 hour.
Format: functional, Erythrocyte

Row | SMILES | % Inhibition [%] | Z score
1 | CO[C@H]1CCCOC12CCN(C(=O)c1ccc3c(c1)OCO3)CC2 | -6 | 0.51
2 | CCS(=O)(=O)NCCc1ncc(C)n1C(C)C | 6 | -1.18
3 | Cc1c(C(=O)NCc2nccs2)cnn1-c1ncc2c(n1)-c1ccccc1CCC2 | 20 | -2.54
4 | Cc1c(Br)cccc1C(=O)Nc1ccc(N2C[C@@H](C)O[C@@H](C)C2)nc1 | 1 | -0.07
5 | COCCN(Cc1cccnc1)C(=O)c1nc(C(C)C)cs1 | -10 | 1.57
6 | O=C(c1ccc2c(c1)OCO2)N1CC[C@H](N2C(=O)COC2=O)C1 | -4 | 0.7
7 | COc1cc(OC)c(-c2nc3cc4[nH]c(=O)[nH]c4cc3[nH]2)cc1Cl | 10 | -1.27
8 | Cc1cn(C)nc1C(=O)Nc1nnc(-c2ccco2)o1 | -4 | 0.66
9 | COc1ccc(Br)cc1NC(=O)NC(C)C(C)CO (centres undefined) | 32 | -3.64
10 | CON(C)C(=O)c1cccc(N(C)C)c1 | 4 | -0.39
11 | CCCCn1c(C)c(C)c(S(=O)(=O)c2ccccc2)c1N | -9 | 1.23
12 | O=C(NC[C@H]1CN(S(=O)(=O)Cc2ccccc2)CC12CCOCC2)N1CCCC1 | -7 | 0.89
13 | O=C(N[C@H]1CCN(c2ccc(F)c(Cl)c2)C1=O)c1cnccn1 | 31 | -3.52
14 | C[C@@H](NC(=O)C1CCc2[nH]nnc2C1)c1ccc(C(F)(F)F)cc1 (some centres undefined) | -15 | 1.39
15 | COCc1cc(-c2cc(-c3c(C)n[nH]c3C)nc(N)c2C#N)ccc1OC | -4 | 0.81
16 | CC(C)[C@H](Nc1cccc(F)c1C#N)C(N)=O | -14 | 1.17
17 | CCc1ncc(C(=O)N(Cc2ccncc2)Cc2cccnc2)s1 | -5 | 0.89
18 | COc1ccc(CN[C@H](c2cccc3ccccc23)C(F)(F)F)nn1 | -9 | 1.35
19 | CS(=O)(=O)NC1CC(NS(=O)(=O)c2cccc3c2OC(F)(F)O3)C1 (centres undefined) | 3 | -0.38
20 | CC(C)C(=O)N[C@@H](Cc1c[nH]c2ccccc12)C(=O)N(C)Cc1nnc2n1CCCCC2 | -3 | 0.4
21 | COCC(=O)Nc1cc(C(=O)N[C@@H](C)c2c(C)nn(C)c2C)c2c(c1)ncn2Cc1ccc(F)cc1 | -8 | 1.13

Row | SMILES | % Inhibition [%] | Z score
22 | C[C@@H](C1CC1)N(C(=O)NCCc1cnn(-c2ccccc2)c1)C1CC1 | 2 | -0.29
23 | CNc1ncccc1C(=O)N1CCO[C@H](C(=O)N(C)C)C1 | 2 | -0.19
24 | CCCn1nnnc1CN(C)Cc1nnc(C2CC2)n1C | -10 | 1.28
25 | Cc1[nH]nc(-c2nc(-c3cn(C)c(=O)[nH]c3=O)no2)c1C(F)(F)F | -11 | 1.85
26 | Cn1c(CN2CCOCC2)nnc1C1CCN(C(=O)c2ncccc2O)CC1 | 0 | -0.04
27 | O=C1C(N2C(=O)C3CCCN3C2=O)CCN1Cc1ccc(F)cc1 (centres undefined) | -2 | 0.23
28 | CCc1cc(CNC(=O)c2cccc(S(=O)(=O)N[C@H]3CCOC3)c2)on1 | -3 | 0.57
29 | CCN(CCO)C(=O)c1ccc(C(=O)OC)cc1 | -14 | 1.41
30 | O=C(CNc1cccc(C(F)(F)F)c1)Nc1ccccc1C(=O)NC1CC1 | 2 | -0.37
31 | CCc1cccc(OC2CN(Cc3cnn(CC)c3)C2)c1 | -2 | 0.42
32 | Cc1ccc(C(=O)N[C@H]2CC(=O)N(C)C2)cn1 | -1 | 0.26
33 | Cc1cccnc1C(=O)N1CC[C@H](c2sccc2C)[C@@H](O)C1 | -2 | 0.3
34 | CN1CCCC[C@@H]1CN1CC(Oc2ccccc2F)C1 | -17 | 1.9
35 | Cc1ccc(C(=O)N2CCN(C3CCCCC3)CC2)c(C2CCN(C(=O)c3c(F)cccc3F)CC2)n1 | -17 | 2.38
36 | Cc1ccsc1-c1noc([C@H]2CCc3nccn3C2)n1 | -5 | 0.62
37 | CC1CCCC(NC(=O)Nc2nnn(C)n2)C1 (centres undefined) | 0 | 0.09
38 | Cc1cc([C@@H]2CCCN2C(=O)Nc2cccc(S(=O)(=O)C3CCCC3)c2)no1 | 3 | -0.43
39 | COc1cccc(C(=O)Nc2ccc3ncnc(N4CCCCC4)c3c2)c1 | -19 | 1.81
40 | Cc1ccc(S(=O)(=O)NCc2nc3cccnc3n2C)cc1 | 0 | -0.06
41 | O=c1[nH]cnc2c1CCN(S(=O)(=O)Cc1cc(Cl)cc(Cl)c1)C2 | 3 | -0.53
42 | CC(C)c1cnc2cc(C(=O)O)[nH]c2c1 | -18 | 1.86
